Assay results as given in PubChem BioAssay AID1347428 (National Center for Advancing Translational Sciences (NCATS), 2020).
Screen size: about 91,000 compounds; about 290 (0.32%) were called active. The shares of active, inactive and inconclusive entries below differ from those in the screen. Calls follow the shape of the dose curve; as a rule, active = well fitted inhibition curve with a large enough effect; inconclusive = small, poorly fitted or top-dose-only effect; inactive = no such curve, though single readings can be large or run the other way. Potencies beside an inconclusive call are fits to weak or partial responses and may not hold up.
Also: nearly all actives have a fitted effect of over 25% in size.
Potency is read from the fitted curve at half-maximal effect; tags tell the direction and shape of the fitted curve.

These molecules were tested against Single-stranded DNA cytosine deaminase (Homo sapiens) (UniProt Q9GZX7) (assay: Primary qHTS assay for inhibitors of Activation Induced Cytidine Deaminase (AID): AID signal). Settings: AID deamination FRET fluorescence, UDG-coupled, 4 h; series mostly up to 115 µM.
Chain of UniProt Q9GZX7 (Q9GZX7 whole entry, looked up): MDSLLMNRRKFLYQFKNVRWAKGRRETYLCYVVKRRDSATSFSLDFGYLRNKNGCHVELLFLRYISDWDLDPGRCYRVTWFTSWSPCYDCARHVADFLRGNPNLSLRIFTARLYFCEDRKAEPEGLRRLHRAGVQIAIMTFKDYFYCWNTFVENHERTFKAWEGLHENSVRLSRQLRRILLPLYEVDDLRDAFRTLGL
For `COc1ccc(/C=C/c2nc(C#N)c(N3CCCCC3)o2)cc1OC`, the Potency was inconclusive: 79.4 µM [inhibitor, partial curve, poor fit].
With `Cc1cc(C)c2c(=O)cc(CSc3nnc(-c4cccc(F)c4)n3C)[nH]c2c1` the Potency was “inactive”.
`Cc1ccccc1-c1nn2c(=O)cc(N3CCN(S(=O)(=O)c4ccc(F)cc4)CC3)nc2s1` was tested, and the Potency was “inactive”.
`Cc1nc2c3ccccc3nc(NNC(=O)CCC(=O)N3CCN(c4ccc(F)cc4)CC3)n2n1` was tested, and the Potency was inconclusive: 79.4 µM [inhibitor, partial curve, poor fit].
In the case of `CCCCN(Cc1ccccc1)c1ccc(NS(=O)(=O)c2ccc(C)c(C)c2)cc1C(=O)O`, the Potency is reported as inconclusive: 25.1 µM [inhibitor, single point].
In the case of `COc1ccc(OC)c(CCNC(=O)c2nc(-c3ccc(Cl)cc3)n3c2CCCCC3)c1`, the Potency is reported as inconclusive: 39.8 µM [inhibitor, single point].
In the case of `COc1cccc(NC(=O)Cn2c(=O)oc3cc(S(=O)(=O)N4CCCCC4)ccc32)c1`, the Potency is reported as “inactive”.
`CCOc1ccc(NC(=O)C(c2ccccc2)c2ccccc2)c2cccnc12` was tested, and the Potency was “inactive”.
For `COc1ccc(S(=O)(=O)N(CC(=O)NC(C)c2ccccc2)c2ccc(C)cc2)cc1OC` (centres undefined), the Potency was active: 44.7 µM.
`COc1ccc(N2CCN(CCCNC(=O)c3c(C)nn(-c4ccc(F)cc4)c3-n3cccc3)CC2)cc1` was tested, and the Potency was inconclusive: 44.7 µM [inhibitor, partial curve, poor fit].
With `CCOC(=O)N1CCC(NC(=O)c2ccc3c(c2)N(Cc2ccccc2C)C(=O)c2ccccc2S3=O)CC1` (centres undefined) the Potency was inconclusive: 17.8 µM [inhibitor, full curve, poor fit].
In the case of `Cc1ccc2ccc3cc(C(=O)N4CCN(c5ccccc5F)CC4)nc3c2[nH]1`, the Potency is reported as inconclusive: 39.8 µM [inhibitor, single point].
For `Cc1ccc(NC(=O)Cn2c(=O)n(Cc3nc(-c4ccccc4)no3)c(=O)c3ccccc32)c(C)c1`, the Potency was inconclusive: 12.6 µM [inhibitor, partial curve, poor fit].
In the case of `Cc1ccc(Cl)cc1-n1ncc2c(NCCc3ccccc3)ncnc21`, the Potency is reported as inconclusive: 79.4 µM [inhibitor, single point].
In the case of `Cc1ccc(NC(=O)C2=C(c3ccccc3)NC(=S)NC2c2ccc(C(C)C)cc2)cc1` (centres undefined), the Potency is reported as “inactive”.
`C=CC(=O)Oc1ccc(C(=O)Oc2ccc(CCCC)cc2)cc1` was tested, and the Potency was inconclusive: 39.8 µM [inhibitor, partial curve, poor fit].
With `CC(=O)Nc1cccc(NC(=O)Cn2cnc3c(oc4ccccc43)c2=O)c1` the Potency was inconclusive: 79.4 µM [inhibitor, partial curve, poor fit].
With `O=C(CCSCc1cccc(Cl)c1)NCCc1ccc(Cl)cc1` the Potency was inconclusive: 100 µM [inhibitor, single point].
With `Cc1csc2nc(COC(=O)c3ccc(NC(=O)C(C)Oc4ccccc4)cc3)cc(=O)n12` (centres undefined) the Potency was inconclusive: 11.2 µM [inhibitor, full curve].
In the case of `COc1ccccc1C(=O)N(c1ccc(C)cc1)S(=O)(=O)c1ccc(Cl)cc1`, the Potency is reported as inconclusive: 44.7 µM [inhibitor, partial curve, poor fit].
For `CCN(CC)c1nn2c(=O)c(C(=O)NCCc3cccc(C)c3)cnc2s1`, the Potency was inconclusive: 39.8 µM [inhibitor, full curve, poor fit].
In the case of `Cc1ccc2nc(-c3ccccn3)c(Nc3ccccc3C)n2c1`, the Potency is reported as inconclusive: 50.1 µM [inhibitor, partial curve, poor fit].
With `O=Cc1cc(O)ccc1Br` the Potency was “inactive”.
For `CCCCCCOc1ccc(C(=O)/C=C/C(=O)O)cc1`, the Potency was inconclusive: 56.2 µM [inhibitor, partial curve, poor fit].
`CCCOc1ccc(C(=O)N(Cc2ccco2)Cc2ccco2)cc1` was tested, and the Potency was inconclusive: 35.5 µM [inhibitor, partial curve, poor fit].
`COc1ccc(NC(=O)CCn2cnc3onc(-c4ccc(F)cc4)c3c2=O)cc1OC` was tested, and the Potency was inconclusive: 89.1 µM [inhibitor, partial curve, poor fit].
For `CC1Cn2c(C(=O)NCc3ccccc3Cl)cc3cccc(c32)S1` (centres undefined), the Potency was inconclusive: 20 µM [inhibitor, full curve, poor fit].
In the case of `FC(F)(F)c1cccc(Nc2c3c(nc4ccc(Cl)cc24)CCC3)c1`, the Potency is reported as inconclusive: 31.6 µM [inhibitor, partial curve, poor fit].
With `CCCCCN1C(C(=O)c2ccccc2)=C(OC(=O)CC)c2ccccc2S1(=O)=O` the Potency was inconclusive: 50.1 µM [inhibitor, partial curve, poor fit].
`COc1ccc(-c2nc(CSCC(=O)NCc3ccccc3Cl)c(C)o2)cc1OC` was tested, and the Potency was inconclusive: 79.4 µM [inhibitor, partial curve, poor fit].
In the case of `CC(C)c1ccc(Nc2c(-c3ccccn3)nc3ccccn23)cc1`, the Potency is reported as inconclusive: 50.1 µM [inhibitor, partial curve, poor fit].
With `O=C(Sc1cccc2cccnc12)c1ccccc1Cl` the Potency was inconclusive: 7.08 µM [inhibitor, full curve, poor fit].
With `Cc1ccc2nc(Cl)c3cc(C(=O)N4CCCCC4)sc3c2c1` the Potency was inconclusive: 50.1 µM [inhibitor, partial curve, poor fit].
For `Cn1c(=O)c2c(-c3ccc(Cl)cc3)n(CCc3ccccc3)cc2n(C)c1=O`, the Potency was inconclusive: 8.91 µM [inhibitor, full curve, poor fit].
With `Cc1ccc(-n2ncc(C(=O)NCc3ccco3)c2C2CCN(C(=O)OC(C)(C)C)CC2)cc1` the Potency was inconclusive: 63.1 µM [inhibitor, partial curve, poor fit].
`CNC(=O)C1CCC(Cn2c(=O)c3sccc3n(CC(=O)N3CCC(C)CC3)c2=O)CC1` (centres undefined) was tested, and the Potency was inconclusive: 35.5 µM [inhibitor, partial curve, poor fit].
In the case of `CCc1ccc(S(=O)(=O)c2cnc3ccc(OC)cc3c2N2CCCC(C)C2)cc1` (centres undefined), the Potency is reported as inconclusive: 79.4 µM [inhibitor, partial curve, poor fit].
With `Cc1cccc2sc(N3CCN(C(=O)CS(=O)(=O)c4ccc(F)cc4)CC3)nc12` the Potency was inconclusive: 35.5 µM [inhibitor, partial curve].
`O=C(CCCOC(=O)c1c(Cl)ccc(Cl)c1Cl)c1ccc(F)cc1` was tested, and the Potency was “inactive”.
In the case of `O=C(c1ccc2c(c1)CCN2S(=O)(=O)c1ccccc1)N1CCN(c2cccc(Cl)c2)CC1`, the Potency is reported as inconclusive: 2.82 µM [inhibitor, partial curve, poor fit].
`Cc1ccc(CNC(=O)c2cnc(N3CCCCC3)c3ccccc23)cc1` was tested, and the Potency was inconclusive: 28.2 µM [inhibitor, full curve, poor fit].
With `Cc1cccc(Nc2c(-c3cccs3)nc3nc(C)cc(C)n23)c1` the Potency was inconclusive: 50.1 µM [inhibitor, partial curve, poor fit].
With `CCc1ccc(CNC(=O)c2cc3c(=O)n(CC)c4ccccc4c3s2)cc1` the Potency was inconclusive: 31.6 µM [inhibitor, full curve, poor fit].
For `CC(C)(C)OC(=O)N1CCC(c2c(C(=O)NCc3ccccc3)cnn2-c2ccccc2)CC1`, the Potency was inconclusive: 44.7 µM [inhibitor, partial curve].
For `COc1ccccc1CNC(=O)CCc1c(C)nc2c(c(C)nn2-c2ccc(C)c(C)c2)c1C`, the Potency was inconclusive: 31.6 µM [inhibitor, partial curve, poor fit].
With `COc1cccc(CNc2nccn(-c3cc(C)cc(C)c3)c2=O)c1` the Potency was inconclusive: 44.7 µM [inhibitor, partial curve, poor fit].
In the case of `CCN1C(=O)c2ccccc2Sc2ccc(NC(=O)Nc3ccccc3OC)cc21`, the Potency is reported as inconclusive: 39.8 µM [inhibitor, single point].
In the case of `Nc1nccnc1C(=O)NCC(O)c1ccc(F)cc1F` (centres undefined), the Potency is reported as “inactive”.
In the case of `Cc1nn(C(C)C(=O)NCc2ccco2)c(=O)c2c1sc1ccccc12` (centres undefined), the Potency is reported as “inactive”.
In the case of `Cc1ccc(CNC(=O)c2ccc(CSCc3ccccc3Cl)o2)cc1`, the Potency is reported as inconclusive: 22.4 µM [inhibitor, full curve, poor fit].
With `COc1ccccc1CNC(=O)CCC1N=C2c3ccccc3N=C(SCC(N)=O)N2C1=O` (centres undefined) the Potency was inconclusive: 14.1 µM [inhibitor, full curve, poor fit].
`CC1CCN(C(=O)c2cc3c(=O)n(C)c4ccccc4c3s2)CC1` was tested, and the Potency was inconclusive: 44.7 µM [inhibitor, partial curve, poor fit].
In the case of `COc1ccc(Cl)cc1NC(=O)CSC1=Nc2ccccc2C2=NC(CC(=O)NC3CCCCC3)C(=O)N12` (centres undefined), the Potency is reported as active: 31.6 µM.
`COc1ccccc1CC(=O)N(Cc1nc(-c2ccc(C)cc2)no1)C1CCCCC1` was tested, and the Potency was inconclusive: 44.7 µM [inhibitor, partial curve].
`Cc1ccc(Nc2c(-c3ccsc3)nc3cccc(C)n23)cc1` was tested, and the Potency was inconclusive: 56.2 µM [inhibitor, partial curve, poor fit].
In the case of `O=C(Cn1c(=O)n(Cc2ccc(F)cc2)c(=O)c2ccccc21)Nc1ccc(F)cc1`, the Potency is reported as “inactive”.
`Cc1ccc(-c2nc3c(cnn3-c3ccccc3)c(=O)n2-c2cccc(Cl)c2)cc1` was tested, and the Potency was inconclusive: 25.1 µM [inhibitor, single point].
In the case of `CCOC(=O)C1CCC(CN(Cc2c(Cl)cccc2Cl)S(=O)(=O)c2ccc(Cl)cc2)CC1` (centres undefined), the Potency is reported as inconclusive: 2.82 µM [inhibitor, full curve, poor fit].
For `Cc1ccc(N2CCN(c3c(CN4CCCC4)c(=O)oc4ccccc34)CC2)c(C)c1`, the Potency was inconclusive: 35.5 µM [inhibitor, partial curve, poor fit].
